The record followed here is PubChem BioAssay AID1346428 (National Center for Advancing Translational Sciences (NCATS), 2018).

Molecules are shown by their SMILES. The campaign covered roughly 48,000 compounds. About 1,200 (2.5%) were called active. Inconclusive results (about 2%) are left out.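 Rule for the calls: active = activation of at least 60% and not above a set upper limit (about 1 call in 100 departs from these limits); inconclusive = activation of 40% to 60%, or above that upper limit; inactive = activation under 40%.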 This is one part of the list.

The target of the experiment is Probable G-protein coupled receptor 32 (Homo sapiens) (UniProt O75388). As to the kind of experiment: qHTS for Agonists of Human Resolvin D1 Receptor DRV1. The settings on record: CHO-K1 GPR32 beta-arrestin PathHunter luminescence, 90 min; at 76.9 µM; stronger effect = higher value; zero percent set by DMSO-only wells. In a few lines: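 Beta-arrestin recruitment read-out: luminescence from complemented beta-Gal in CHO-K1 GPR32 PathHunter cells, measured 1 h after detection reagent at ambient temperature following 90 min compound exposure at 37 °C; DMSO served as basal (EC0) control.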
UniProt O75388, sequence (O75388 whole entry, looked up): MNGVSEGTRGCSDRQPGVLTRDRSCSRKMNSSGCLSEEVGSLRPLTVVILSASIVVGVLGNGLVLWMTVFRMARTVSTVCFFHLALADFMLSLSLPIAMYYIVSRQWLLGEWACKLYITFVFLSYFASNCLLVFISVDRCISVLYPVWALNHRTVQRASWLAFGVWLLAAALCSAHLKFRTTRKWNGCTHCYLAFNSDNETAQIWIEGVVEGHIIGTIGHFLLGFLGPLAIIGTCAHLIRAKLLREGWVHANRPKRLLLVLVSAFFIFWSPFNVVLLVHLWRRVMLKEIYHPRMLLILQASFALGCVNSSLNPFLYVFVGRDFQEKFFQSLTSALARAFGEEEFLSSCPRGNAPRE
In general terms: qHTS replaces the single test concentration by a dilution series.
Regarding `COc1cccc(C(=O)Nc2cc(-c3ccccc3)nn2-c2ccccc2)c1`, the activation was inactive: -8.98%. Regarding `CN(C)S(=O)(=O)N1CCC(n2cnc3cccnc32)CC1`, the activation was inactive: -1.72%.

As to `COc1ccccc1Cn1c(CNS(=O)(=O)c2ccc(CC(C)C)cc2)nc2cccnc21`, the activation was inactive: -22.6%. The same measure for `Cc1ccc(CCNC(=O)c2cc3cc4cc(C)ccc4nc3s2)cc1`: inactive: -2.74%; for `COc1ccc(NC(=O)N(C(C)C)C2CCN(C(C)=O)CC2)c(OC)c1`: inactive: -14.9%.

Consider `CCOc1ccc(NC(=O)Cn2cc(C(=O)c3ccc(OCC)cc3)c(=O)c3cc4c(cc32)OCCO4)cc1`, for which the activation is inactive: 12.6%. For `CCc1ccc(NC(=O)CC2C(=O)N(c3ccc(C)cc3)C(=O)N2CCc2ccncc2)cc1` (stereo not drawn), the activation is inactive: -5.76%.

`COC(=O)Cc1c(C)c2cc3c(c(C)c2oc1=O)OCN(CCc1ccc(F)cc1)C3`: the activation is inactive: 7.45%.

Turning to `COc1cccc(NC(=O)CN2C(=O)COc3ccc(S(=O)(=O)N4CCCCCC4)cc32)c1`, the activation is inactive: -26.7%. For the molecule `O=C1C2=C(Nc3ccccc3SC2c2ccc(Cl)c(Cl)c2)c2ccccc21` (stereo not drawn), the activation was inactive: -52.2%. Consider `COc1cccc(N2C(=O)C(CC(=O)Nc3ccc(F)cc3)N(CCC3=CCCCC3)C2=O)c1` (stereo not drawn), for which the activation was inactive: -4.51%.

With `COc1ccc(NC(=O)CN(C)S(=O)(=O)c2ccc(C(=O)N3CCOCC3)s2)cc1`, the activation is inactive: -26.4%. For `Cc1cccc(C)c1OCC(=O)N1CCC(c2nc3ccccc3o2)CC1` the value was inactive: -7.13%. The same measure for `Nc1c(C(=O)NCc2ccc3c(c2)OCO3)nnn1CC(=O)Nc1ccc(Br)cc1`: active: 61.5%; for `Cc1ccc(Cn2cc(C(=O)c3ccc(C)cc3)c(=O)c3ccc(C)nc32)cc1`: inactive: -0.292%; for `CCc1ccc(-c2cc(C)no2)cc1S(=O)(=O)Nc1ccc(Cl)cn1`: inactive: -7.43%.

Turning to `Cc1cccc(NC(=O)CSc2cn(CC(=O)N3CCCC3)c3ccccc23)c1C`, the activation was inactive: -15%.

With `CC(=O)N1CCCc2cc(S(=O)(=O)N3CCCC(C(=O)NCc4ccccc4)C3)ccc21` (stereo not drawn), the activation is inactive: 5.13%. As for `Cc1cc(SCC(=O)Nc2ccc(Cl)cc2)nc2ccccc12`, the activation was inactive: -2.57%. The same measure for `Cn1c(=O)n(Cc2ccccc2Cl)c(=O)c2c1nc1n2CCN1c1ccccc1`: inactive: 0.744%; for `COc1cccc(CNC(=O)CSc2cc(C)[nH]c(=O)n2)c1`: inactive: -2.84%.

Regarding `Cc1c(Cl)cccc1NC(=O)CSc1nc(=O)n(Cc2ccncc2)c2c1CCC2`, the activation was inactive: -10.9%. The same measure for `Cc1ccc(C(=O)COC(=O)CCCC(=O)Nc2cc(C(F)(F)F)ccc2Cl)cc1C`: inactive: -15.4%; for `Cc1oc(-c2ccc(C(=O)NCCCOC(C)C)cc2)nc1CS(=O)(=O)c1ccccc1`: inactive: 3.65%. The same measure for `COc1ccc(C(=O)NCc2ccc3c(c2)CCN3C(C)=O)cc1OC`: inactive: -12.3%; for `COc1cc2c(cc1OC)n(CC(=O)Nc1ccc(C)cc1C)c(=O)n1nc(-c3ccccc3)nc21`: inactive: -4.93%. The same measure for `Cc1cc(Nc2ccccc2F)n2nc(Cc3ccc(Cl)cc3)nc2n1`: inactive: 14.7%; for `CCn1ccc2cc(S(=O)(=O)N3CCCN(C(=O)Nc4ccc(C)cc4Cl)CC3)ccc21`: inactive: -7.09%; for `CC(C)c1ccc(Nc2cc(C(=O)NCCCN(C)Cc3ccccc3)c3ccccc3n2)cc1`: inactive: -19.4%. As to `Cc1cccc(NC(=O)CSc2ncc3c(n2)-c2cc(Cl)ccc2N(C)S3(=O)=O)c1C`, the activation was inactive: 18.6%. As for `COC(=O)c1ccc(C2c3c(-c4ccc(Br)cc4)n[nH]c3C(=O)N2c2ccc(Cl)cc2)cc1` (stereo not drawn), the activation is inactive: -19.7%. Consider `CC(=O)N1CCN(C(=O)C(=O)Nc2c3c(nn2-c2ccc(Cl)cc2)CSC3)CC1`, for which the activation is inactive: -1.66%.

Consider `CCc1ccc(OCC(=O)Nc2cc3oc4ccccc4c3cc2OC)c(Br)c1`, for which the activation is inactive: 13.3%. The same measure for `CCOc1ccc2c(c1)c(=O)c(S(=O)(=O)c1ccc(CC)cc1)cn2CC`: inactive: -6.86%; for `CC1CCN(C(=O)CN2c3ccc(Br)cc3-c3ccccc3S2(=O)=O)CC1`: inactive: -19.9%; for `O=C(COc1ccccc1)Nc1c(C(=O)N2CCN(c3ccc(F)cc3)CC2)oc2ccccc12`: inactive: -16.1%. The same measure for `COc1ccc(-c2nnc(SCC(=O)N3CCCCC3)o2)cc1`: inactive: 4.09%; for `CCOc1ccccc1-c1noc(CSc2nnc(-c3ccncc3)n2-c2ccc(F)cc2)n1`: inactive: -14.6%. As to `Cc1ccc(-n2ncc(C(=O)NCc3ccc4c(c3)OCO4)c2C2CCN(C(=O)OC(C)(C)C)CC2)cc1C`, the activation was inactive: -20.2%. The same measure for `Cc1ccc(NCc2cccn2-c2nnc(N3CCC(C(=O)NCc4ccccc4C)CC3)s2)cc1`: inactive: -33.6%. For `COc1ccc(CN2CCCN(CC(=O)Nc3ccc(Br)cc3F)S2(=O)=O)cc1` the value was inactive: 12.8%; for `Cc1c(C(=O)N2CCC(C)CC2)c(S(=O)(=O)Nc2cccc(C#N)c2)c(C)n1C`, inactive: -8.9%. For `Cc1c(Cl)cccc1NC(=O)c1cc(-c2cccs2)on1`, the activation was active: 91.4%. In the case of `CCOC(=O)c1c(C)[nH]c(C)c1S(=O)(=O)N(C)CC(=O)Nc1cccc(Cl)c1C`, the activation is inactive: 2.24%.

Consider `CC1=C(c2ccc(C)c(C)c2)S(=O)(=O)N=C1N1CCN(c2cccc(C)c2)C(C)C1` (stereo not drawn), for which the activation is inactive: -4.75%.

Consider `COc1ccc(C(=O)N2CCCCC2CCN2CCOCC2)cc1` (stereo not drawn), for which the activation was inactive: -0.804%. For `CCOc1ccc(NC(=O)CC2Nc3cccc4cccc(c34)NC2=O)cc1` (stereo not drawn) the value was active: 83.1%; for `CN(C(=O)CSc1nc2ccc(NC(=O)COc3ccc(F)cc3)cc2s1)c1ccccc1`, inactive: -1.8%; for `O=C(c1ccccc1Cl)N1CCCC(c2nc3c(nnn3Cc3ccc(F)cc3F)c(=O)[nH]2)C1` (stereo not drawn), inactive: -21.1%. The same measure for `CC(C)Sc1ncc(Cl)c(C(=O)Nc2nc3ccc(S(C)(=O)=O)cc3s2)n1`: inactive: 7.44%. The same measure for `Cc1cc(-c2ccc(S(=O)(=O)Nc3cccc(C(F)(F)F)c3)s2)on1`: inactive: -5.22%; for `Cn1c(=O)c2c(nc(/C=C/c3cccc(Cl)c3)n2C)n(C)c1=O`: inactive: 7.97%; for `CCOC(=O)c1ccc(NC(=O)C2=C(C)C(=O)OC23CCCCCC3)cc1`: inactive: -35.5%.
